Assay results reported in PubChem BioAssay AID624417 (National Center for Advancing Translational Sciences (NCATS), 2012).
About 6,400 (1.6%) of roughly 410,000 compounds were called active. This list was built around the results that the source calls inconclusive (neither active nor inactive); the mix of calls is not that of the screen. The call rests on the fitted dose curve; in most records, active means well fitted inhibition curve with a large enough effect; inconclusive means small, poorly fitted or top-dose-only effect; inactive means no such curve, though single readings can be large or run the other way. Potencies of inconclusive entries are left out as doubtful fits.
Further: nearly all actives have a fitted effect of over 55% in size.
On the % scale 0 is the no-effect control and ±100 the full control effect; potency means the concentration at half of the fitted maximal effect; tags describe the fitted curve by direction and shape.

The molecules below were run against Glucagon-like peptide 1 receptor (Homo sapiens) (UniProt P43220) (assay: qHTS of GLP-1 Receptor Inverse Agonists (Inhibition Mode)). Details: HEK293 GLP-1R CRE-luciferase, luminescence, 24 h, GLP-1R form is constitutively active; activity change, negative = inhibition: at 38.3 µM (top of the series) unless noted.
Chain of UniProt P43220 (P43220 whole entry, looked up): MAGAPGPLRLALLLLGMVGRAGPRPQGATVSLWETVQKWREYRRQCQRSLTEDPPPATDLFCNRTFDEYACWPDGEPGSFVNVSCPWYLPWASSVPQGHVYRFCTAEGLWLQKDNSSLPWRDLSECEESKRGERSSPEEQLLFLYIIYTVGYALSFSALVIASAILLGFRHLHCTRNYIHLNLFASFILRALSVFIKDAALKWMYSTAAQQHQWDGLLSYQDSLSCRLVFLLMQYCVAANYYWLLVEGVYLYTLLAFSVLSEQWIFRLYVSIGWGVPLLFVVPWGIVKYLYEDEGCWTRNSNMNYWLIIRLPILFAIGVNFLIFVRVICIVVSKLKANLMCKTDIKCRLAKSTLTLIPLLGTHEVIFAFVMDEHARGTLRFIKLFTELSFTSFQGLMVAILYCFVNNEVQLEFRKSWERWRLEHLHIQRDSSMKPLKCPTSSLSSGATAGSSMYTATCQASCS
Procedure, shortened: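 Constitutively active GLP-1R drives a cAMP-responsive luciferase in stably transfected HEK293 cells; test compounds are added after overnight (12 h) attachment and left 24 hr, and signal loss in luminescence marks inhibition.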
For `O=[N+]([O-])c1ccc(NN=Cc2cc(Br)ccc2O)nc1`, the Potency was active: 2.82 µM.
`O=C(CCNS(=O)(=O)c1ccc(Br)cc1)NCCCSc1ccccc1` was tested, and the Potency was inconclusive [inhibitor, single point].
`O=C(Nc1cccc(F)c1)N1CCC(c2ccccc2)CC1` was tested, and the Potency was inconclusive [inhibitor, partial curve, poor fit].
With `CC(C)CCNC(=O)CSc1nc2ccccc2nc1Cc1ccccc1` the Potency was inconclusive [inhibitor, partial curve, poor fit].
In the case of `CCOC(=O)c1ccc2c(c1)N(C(CC)C(=O)Nc1ccccc1OC)C(=O)c1ccccc1S2` (centres undefined), the Potency is reported as inconclusive [inhibitor, partial curve, poor fit].
In the case of `CC(C)(C)n1ncc2c(=O)n(CC(=O)NCc3ccccc3)cnc21`, the Potency is reported as active: 4.47 µM.
In the case of `CC(C)CNc1oc(-c2ccccc2Cl)nc1C#N`, the “activity change, negative = inhibition” value is reported as inactive: -31.6%.
For `COc1ccc(-c2csc3nc(-c4cccnc4)nc(N4CCC(C(N)=O)CC4)c23)cc1OC`, the “activity change, negative = inhibition” value was inactive: 83.3%.
With `Cc1ccc(NC(=O)CSCc2ccco2)cc1` the “activity change, negative = inhibition” value was inactive: 1.74%.
`CC(C)OCCCNC(=O)c1cc(-c2cccs2)nc2ccccc12` was tested, and the Potency was inconclusive [inhibitor, partial curve, poor fit].
For `O=c1oc2cc(O)ccc2cc1-c1nc2c(s1)CCc1ccccc1-2`, the “activity change, negative = inhibition” value was inactive: 23.1%.
With `Cc1ccc(NC(=O)C(=O)NCCN2CCN(C(=S)Nc3ccccc3)CC2)cc1` the “activity change, negative = inhibition” value was inactive: -20.5%.
For `CCn1cnc2cc(NCc3ccc(Br)cc3)ccc21`, the “activity change, negative = inhibition” value was inactive: 15.7%.
`C=CCn1c(-c2ccccc2)n[nH]c1=S` was tested, and the “activity change, negative = inhibition” value was inactive: -3.91%.
In the case of `O=C(CNCc1ccccc1)Nc1ccc(Cl)cc1`, the Potency is reported as inconclusive [inhibitor, partial curve, poor fit].
For `Cc1ccc2[nH]c3c(c2c1)SC(C)(C)CC3=O`, the Potency was inconclusive [inhibitor, partial curve].
In the case of `CC1CN(CC(=O)Nc2cccc(C(=O)Nc3cccc(C(F)(F)F)c3)c2)CC(C)O1` (centres undefined), the Potency is reported as inconclusive [inhibitor, partial curve, poor fit].
For `COc1ccc(C2=Nc3ccccc3N(C(=O)c3ccc(C)cc3)C2C(=O)Nc2c(C)cccc2C)cc1` (centres undefined), the Potency was inconclusive [inhibitor, partial curve, poor fit].
For `Cc1cc(N2CCCN(C)CC2)nc2cc(Cl)ccc12`, the Potency was inconclusive [inhibitor, partial curve, poor fit].
In the case of `Cc1cccc(NC(=O)CN(CC2CCCO2)C(=O)c2oc3ccc(F)cc3c2C)c1C` (centres undefined), the Potency is reported as inconclusive [inhibitor, partial curve, poor fit].
`Cc1ccc2[nH]nc(C(=O)N3CCCC(C(=O)c4ccc(Cl)cc4)C3)c2c1` (centres undefined) was tested, and the Potency was inconclusive [inhibitor, partial curve, poor fit].
For `CCOC(=O)/C(=N/O)C1=NC(C)(C)Cc2cc(C)c(C)cc21`, the Potency was inconclusive [inhibitor, single point].
For `COc1cccc(NC(=O)C2(C)CCN2Cc2ccc(OC(C)C)cc2)c1` (centres undefined), the Potency was inconclusive [inhibitor, single point].
`O=C(CC1CCCC1)N1CCN(S(=O)(=O)c2cccc(F)c2)CC1` was tested, and the Potency was inconclusive [inhibitor, single point].
`C=CCN1C(=O)C(O)(CC(=O)c2ccc(Cl)cc2)c2ccccc21` (centres undefined) was tested, and the Potency was inconclusive [inhibitor, single point].
In the case of `COc1ccc2sc(N(Cc3cccnc3)C(=O)c3ccc4c(c3)OCCO4)nc2c1`, the “activity change, negative = inhibition” value is reported as inactive: -20.8%.
With `COc1ccc(S(=O)(=O)Nc2ccccc2OC)cc1NC(=O)Cc1cccs1` the “activity change, negative = inhibition” value was inactive: -14.4%.
With `COc1ccc(O)c(/C=c2/sc3nc4cc(C)c(C)cc4n3c2=O)c1` the Potency was inconclusive [inhibitor, partial curve, poor fit].
In the case of `CCOc1cc(/C=C(\CC(=O)O)c2nc3ccccc3s2)ccc1OC`, the “activity change, negative = inhibition” value is reported as inactive: 79.5%.
With `CCN(CC)S(=O)(=O)c1ccc(N2CCCC2)c(NC(=O)c2ccc(OC)cc2OC)c1` the Potency was inconclusive [inhibitor, single point].
With `COc1ccc(NC(=O)CCOc2ccccc2)c(OC)c1` the Potency was inconclusive [inhibitor, single point].
With `Cc1ccc(C)c(CN2CCC(CNC(=O)Nc3ccc(Cl)cc3)CC2)c1` the Potency was inconclusive [inhibitor, partial curve, poor fit].
For `COc1ccc2oc(=O)c(C(=O)NCCc3c(C)[nH]c4ccc(F)cc34)cc2c1`, the “activity change, negative = inhibition” value was inactive: 0.979%.
In the case of `c1ccc2sc(C3CCN(Cc4nnnn4Cc4ccc5c(c4)OCO5)CC3)nc2c1`, the Potency is reported as inconclusive [inhibitor, full curve, poor fit].
With `COCCNc1oc(-c2ccccc2)nc1S(=O)(=O)c1ccc(Br)cc1` the Potency was inconclusive [inhibitor, single point].
With `COc1ccccc1/C=C/C=N/NC(=O)c1cccs1` the “activity change, negative = inhibition” value was inactive: 17.8%.
With `COc1cc(C(=S)N2CCOCC2)ccc1OS(=O)(=O)c1ccc(Cl)cc1` the Potency was inconclusive [inhibitor, single point].
For `CSCCNC(=O)c1ccc(OC2CCN(CCc3ccccc3)CC2)cc1`, the “activity change, negative = inhibition” value was inactive: -24.8%.
For `Cc1cccc(-n2cc(-c3ccccc3)c3c(N4CCOCC4)ncnc32)c1`, the Potency was inconclusive [inhibitor, partial curve, poor fit].
With `CC(=O)Nc1ccc(NS(=O)(=O)c2c(C(=O)N3CCC(C)CC3)c(C)n(C)c2C)cc1` the “activity change, negative = inhibition” value was inactive: 14.3%.
In the case of `COc1cccc(-c2nc(S(=O)(=O)c3ccc(Cl)cc3)c(NCc3ccccc3)o2)c1`, the Potency is reported as inconclusive [inhibitor, single point].
For `CC(C)Oc1ccc(Cn2c(=O)oc3ccccc32)cc1`, the Potency was inconclusive [inhibitor, single point].
`Cc1cccc(NC(=O)CSc2ccc(-c3ccccn3)nn2)c1` was tested, and the Potency was inconclusive [inhibitor, single point].
With `COc1ccc(CCNC(=O)c2ccc(NC(=O)CC3SC(N4CCCC4)=NC3=O)cc2)cc1OC` (centres undefined) the “activity change, negative = inhibition” value was inactive: 3.69%.
